Assay results reported in patent US20250361297A1, “ANTI- SIGLEC-15 BINDING MOLECULES AND METHODS OF USE” (ADAPTAM THERAPEUTICS, S.L., priority 2024, published 2025).

Legend:
[1] = biological target: T1, mutant version of Siglec-15 (R143A) (Homo sapiens, UniProt Q6ZMC9, R143A); experiment: Flow cytometry binding to HEK293T cells expressing mutant Siglec-15 (R143A); settings: flow cytometry (FIG. 20, FIG. 21)
T1 construct: expressed in transfected cells; host or cells: HEK293T
T1 sequence (Q6ZMC9 20-328 R143A): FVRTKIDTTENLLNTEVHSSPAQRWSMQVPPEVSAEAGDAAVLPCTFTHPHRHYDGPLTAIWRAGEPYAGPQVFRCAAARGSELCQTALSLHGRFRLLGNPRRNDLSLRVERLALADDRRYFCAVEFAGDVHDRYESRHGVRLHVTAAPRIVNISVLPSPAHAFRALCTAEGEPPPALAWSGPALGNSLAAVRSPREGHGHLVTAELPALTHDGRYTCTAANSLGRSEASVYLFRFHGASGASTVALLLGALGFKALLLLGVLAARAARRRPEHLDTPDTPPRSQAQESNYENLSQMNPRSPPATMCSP
Method: Assessment of the binding of anti-Siglec-15 antibodies to HEK293T cells expressing full length human Siglec-15, or mutant human Siglec-15 (R143A) or the domain 2 of human Siglec-15 by Flow cytometry: Siglec-15+, Siglec-15+R143A, and Siglec-15 Domain 2 (D2) HEK293T cells were detached using tryple and washed once with PBS, resuspended in 1× flow cytometry buffer (PBS with 1% FBS) at approximately 1-2×10^6 cells/mL. Then, anti-Siglec-15 mAbs were added to the cell suspension at the desired concentration, starting at 10 μg/mL and performing 1/3 dilutions. Cells were incubated with the indicated antibodies for 30-60 minutes at 4° C. in the dark to prevent degradation of the fluorescent signal. After the primary antibody incubation, cells were washed twice with PBS or flow cytometry buffer by centrifuging at 300-500× g for 5 minutes and the pellet resuspended in fresh buffer. The following antibody was added: anti-human IgG-PE at a 1:500 dilution. Cells were incubated with the secondary antibody for 30 minutes at 4° C. in the dark. Finally, cells were washed twice with PBS or flow cytometry buffer to remove any excess secondary antibody and acquired in a flow cytometer.

[2] = tested on: Siglec-15 positive cells; experiment: Internalization assay (Zenon pHrodo iFL Green); format: cell-based; settings: kinetics over 1, 2, 4, 16, and 24 hours
Method: Internalization assay (Zhenon pHrodo): Sufficient volumes of 4× working solution of anti-Siglec-15 antibodies (10 nM) were prepared in cell culture medium for a total of 25 μL for each well of a 96-well plate. A working solution of Zenon™ pHrodo™ iFL IgG Labeling Reagent was prepared at 30 nM and 25 μL were added to each well. The mix was incubated for 5 minutes at room temperature to allow the labeling complexes to form. 5 mL of suspension cells at 2×10^6 cells/mL in cell culture medium were prepared and 50 μL of cells were added to each well of the 96-well plate containing the mix of anti-Siglec-15 antibody and the Zenon™ labeling reagent. Cells were incubated with the labeling complex for different timepoints (1-24 hours) under standard cell culture conditions. Fluorescence was analyzed by flow cytometry.

[3] = tested on: osteoclast differentiation; experiment: Osteoclast differentiation in vitro (TRACP 5b in culture medium); format: cell-based; settings: relative to baseline levels; culture medium at day 7 (FIG. 46)
[4] = tested on: osteoclast activation; experiment: Osteoclast activation in vitro (CTX-I in culture medium); format: cell-based; settings: relative to baseline; control odanacatib 1 μM (FIG. 47)
[5] = biological target: T2, human Siglec-15 (Homo sapiens, UniProt Q6ZMC9); experiment: Titration of full-length IgG1 antibodies on human Siglec-15 (ELISA / flow cytometry on MOLM-13 Siglec-15 cells); format: binding; settings: full-length human IgG1, titrated from 10 μg/ml
T2 construct: expressed in transfected cells
T2 sequence (Q6ZMC9 20-328): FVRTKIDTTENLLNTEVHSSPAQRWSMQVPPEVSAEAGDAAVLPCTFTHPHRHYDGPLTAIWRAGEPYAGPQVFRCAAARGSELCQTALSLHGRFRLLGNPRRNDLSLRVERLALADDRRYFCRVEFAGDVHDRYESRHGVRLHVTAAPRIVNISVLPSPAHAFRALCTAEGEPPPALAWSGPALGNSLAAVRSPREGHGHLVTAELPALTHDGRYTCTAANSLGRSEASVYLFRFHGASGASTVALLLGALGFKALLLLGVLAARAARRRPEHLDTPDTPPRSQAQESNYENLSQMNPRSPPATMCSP
Method: The binding efficacy of the converted full-length IgG1 anti-Siglec-15 antibodies was then evaluated using both ELISA and flow cytometry. By immobilizing the antigen and titrating the antibodies starting at a concentration of 10 μg/ml, binding kinetics were determined via ELISA, using an anti-human IgG Fab-specific secondary antibody for detection. Palivizumab served as the negative control in these assays (FIG. 8A). Complementary to the ELISA, flow cytometry assays provided insight into the binding behavior of the antibodies on the cell surface. Here, titration of the antibodies began at the same concentration of 10 μg/ml, using MOLM-13 human Siglec-15 and MOLM-13 wild-type cells as a negative control, with detection performed using an anti-human Fc secondary antibody (FIG. 8B). Clone ZLA-1243-A01 is exemplified in an ELISA binding curve (FIG. 14A) and in a MOLM-13 flow cytometry analysis (FIG. 14B). From these assays, EC50 values were calculated, offering a quantitative measure of the antibodies' affinity towards Siglec-15, and leading to the selection of 7 unique hits (Table 10).
For the ELISA, antigens were immobilized on high-binding plates, and the full-length IgG1 anti-Siglec-15 antibodies were titrated beginning at a concentration of 10 μg/ml. After washing, an anti-human IgG Fab-specific HRP-conjugated secondary antibody was applied for detection. Palivizumab was included as the negative control. Optical densities were measured to generate binding curves from which EC50 values were derived. […] Flow cytometric analysis was conducted, and fluorescence intensity was used to calculate EC50 values, providing a quantitative assessment of the antibodies' cell surface binding efficacy. […] Antibodies were titrated starting at a concentration of 10 μg/ml and detected with an anti-human Fc-specific secondary antibody to detect bound primary antibodies. The half-maximal effective concentration (EC50) was calculated for each antibody to determine its binding affinity to mouse Siglec-15. Results were analyzed and ranked based on the EC50 values.

B1: ZLA-1243-A01: fully human anti-Siglec-15 IgG1, silenced Fc, phage display; VH SEQ ID NO: 26, VL SEQ ID NO: 27 (antibody, V domains shown)
VH: [sequence of about 100 residues not given]DNEWTPGSFFDYWGQGTLVTVSS
VL: QSALTQPASVSGSPGQSITISCTGTSSDVGGYNYVSWYQQHPGKAPKLMIYDVSNRPSGVSNRFSGSKSGNTASLTISGLQAEDEADYYCSSYTSSSTRVFGGGTKVTVL
modifications: IgG1 silenced Fc; ZLA-1243-A01 VH; ZLA-1243-A01 VL
B1 was tested. Which “binding to HEK293T cells expressing mutated Siglec-15 (R143A)” value [1] did it give?
Its value is “demonstrated binding”.

And the “internalization, fold increase over isotype control” value [2]?
The value was “approximately 2 fold”.

What about the “effect on osteoclast differentiation (TRACP 5b)” value [3] of the same molecule?
The value was “did not significantly affect”.

What about the “effect on osteoclast activation (CTX-I)” value [4] of the same molecule?
The value was “did not significantly affect”.

And the “EC50 (ng/mL) hS15” value [5]?
Its value is 180.6 ng/mL.
